# Test results as given in the supplement of paper PMC11417369.
# The other results are listed elsewhere or left out.
# System: PfHDP1 homeodomain (GST-tagged)
# Experiment: gcPBM binding intensity (ln(normalized median fluorescence intensity)); higher = stronger DNA binding
# In short: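 In this array assay, P. falciparum DNA-binding domains with a GST tag, expressed in E. coli, were applied for 1 h to primer-extended double-stranded 36-bp intergenic genomic probes and negative controls on an Agilent 4 × 180k array. Bound protein was visualised with Alexa488 anti-GST antibody at 488 nm. Binding intensity is the highest Masliner-normalised natural-log median intensity across replicate spots of either probe orientation.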
row,Sequence,gcPBM binding intensity (ln)
1,ATTAAATAAAATCATGCACACAATATATATTTTAAG [CACACA_site2495],8.9
2,ATAAGCATCTTTTGTGTGCACATAACAAAAAAAAAA,10.2
3,TTTAAAATATTGTATTGTACGCAATAAAAAATACCA [XGTACX_site182],6.45
4,TCTAACATATCTTTAATACACACTTAAAAAAGTACT [CACACA_site652],6.38
5,ATAAAAAAATATAAATGTACATATATATATATATAT [XGTACX_site5620],9.45
6,GATATACAATTTAAGTGTACTATAATAAAATATATA [XGTACX_site3013],6.36
7,ATTTATCTATATATATGTACATATTATTTTTGTGGT [XGTACX_site7390],6.8
8,TATATTAATTCGTTTTGTACACACATAATGAATAAT [XGTACX_site4618],6.14
9,TATGTAATAAATAGTACACACACACCGATATATATA [CACACA_site8389],7.13
10,AAAAAAAAAAAATACACACACATATATATATATATA [CACACA_site2224],9.24
11,TATAATAATATTATAGTGCATATTATTTATATATAA [GTGCAC_site9820],7.97
12,ATTTTAATACTTTTATATTAAATGTAGCACATCATA [XGTACX_negctrl_site273],6.26
13,AAAAAGTGATTAAAATGTACAAAATGCATAAAAGAA [XGTACX_site6625],8.15
14,GATATGTTAAATATATGTACATATATAAACCCAAAC [XGTACX_site6601],7.08
15,AAAGTAAAAAAAAAAACATGCATACGCTAATTTTTA [TGCATGCA_site301],5.76
16,TTATTTATTTAGTAGTGTACTTTTTATATTTATAAT [XGTACX_site5978],6.36
17,CATTTTTTGCTTTCAACACACATACAATATAAATAA [CACACA_site7858],6.89
18,TTTAATATGAATTTATGTACATATATATATATATAT [XGTACX_site6337],9.27
19,TATATTAAAAAAAAATGTACATATATATAATATATA [XGTACX_site1935],6.8
20,ATTTTTATTTTCTTTACACACCACATAACTTTTTTT [CACACA_site7826],7.03
21,ACTTTTTAATATTTTAGTACACAGTAATTCTTACTA [XGTACX_site1425],6.65
22,ATATATATATATATATGTACATATATCTACATATAT [XGTACX_site7588],9.2

row,Sequence,gcPBM binding intensity (ln)
1,TATGTCTTGTTGTAAAATATTTATTAACAAATTGGC [CACACA_negctrl_site1452],6.44
2,TATATATATATAAGTGCACACTGAACCAAGAAAATT [CACACA_site5637],9.8
3,TTAAAGAATATTTTCACACATAAAAATTTTAATTTA [CACACA_site4290],5.93
4,TTATAAAACACAAAATGTACAAAAAATTATAATTAA [XGTACX_site6859],6.67
5,AATATTATTATCTTACCACACACAATCTACGAAAAG [CACACA_site8006],6.62
6,TATCATATAAAACATGCACACATATGTACTCTTATA [CACACA_site9249],9.14
7,CGTTCTATTTAGATATGTACTTAAATATATGATCAT [XGTACX_site2936],6.39
8,AAAAAATAAGATTGTACACACATAAATTCTTTGTCA [CACACA_site2089],6.27
9,TTTTTTTTTTTTTAAATAATCATACATGTGAAATTG [GTGCAC_negctrl_site328],6.15
10,TTAATAAAAATATATCCACACACATATATATATATG [CACACA_site8091],6.73
11,ATCATTTATTTTTTAAAAGTATATATATATATATAT [CACACA_negctrl_site220],9.37
12,TTTTGACATTAACTTAAAAAATAAATAATTATAAAA [XGTACX_negctrl_site552],6.17
13,ACATATTATAACATATGTACATATATATATATATAA [XGTACX_site5567],6.95
14,AAATATAAGTTTTATTGTACATTATATAGCATATTT [XGTACX_site6618],6.39
15,AATGTGTTCATATATGCACACGCATATATATTATTG [CACACA_site9274],9.95
16,TATATAAATGGACACACACACACCTTATAATTATTA [CACACA_site6093],6.85
17,TTTATAAATTGACACACACACATGTGAACATAAAAA [CACACA_site6978],6.65
18,GCCTATATGTTTAGTTGTACTCCTAATATTATTTGT [XGTACX_site6060],6.91
19,CAAATTATTTCGAGGTGTACTTTTTTATATTATATT [XGTACX_site8309],6.36
20,CCTAATTTTTTTAGTTGTACTTTTTTTTTTTTTTAT [XGTACX_site7948],6.24
21,CACGAAAAAAAAAAATGTACATAAAAATATGATACA [XGTACX_site2536],6.22
22,TCTCATTTCAACAACAGTACATATCTATCTGTGTAT [XGTACX_site6897],6.41

row,Sequence,gcPBM binding intensity (ln)
1,AAAAAAAAAAAAAAAAAAAAAGGACGGATGGATGGA [GTGCAC_negctrl_site527],6.88
2,GAAAGAGAAATATATACACACATATTTATATTTTTA [CACACA_site2066],6.23
3,ATACGTATATAATATACATGCATATATAGCACATAC [TGCATGCA_site376],7.28
4,ATAAAAAAAAAAAAAAATGAAGCATCACCGTGTAAT [XGTACX_negctrl_site288],6.39
5,AATTATATATTATCATGTACAAATATAGTAATACAA [XGTACX_site6845],6.37
6,AAATTATAAGTAAAAAGTACTTAATATATAATAAAC [XGTACX_site6065],6.68
7,CTTATACTTCTACATCGTACAAAAGATGGTATAATT [XGTACX_site2698],6.23
8,AAAAAAAAAAAAAATAGTACGTAACTATAATTTCCT [XGTACX_site2457],6.36
9,TATAATTTTTTTTGGGTGCTTGGGTAAATTTTATTA,7.1
10,TAACTTAAATAATACATACACACATGTACATACAGA [CACACA_site1594],6.45
11,ATTGTGGCAATATATTGTACATGTAATATAAATATA [XGTACX_site5415],6.66
12,AATTAAAATATATATATACACACGTAATTATATATA [CACACA_site3819],6.39
13,AAAAAAAAAAAAATAGGTACGTAAATATTTCTTTAA [XGTACX_site6423],6.15
14,TCTTTTAGTTTTATCCACATAATAAAAAGCAAAAAA [GTGCAC_negctrl_site368],6.28
15,TATTCTTCAATTTAAAGTACAAAAATTACTATACTT [XGTACX_site6599],6.17
16,AAAAAAAAAAAAAAGAGTACTTTTTTCTCATTACTA [XGTACX_site8353],6.14
17,AAATATATATGAAGATGTACATATATATATGTAAAT [XGTACX_site4039],6.45
18,TAACACTTATAAAAAAGTACTGATGAAATAATACTA [XGTACX_site7305],5.91
19,AAAAATTCCAGACACACACACACATATAAATAAATA [CACACA_site1232],6.73
20,AGAACCATATATAAATGTACATGTTAATATGAATAA [XGTACX_site130],6.54
21,GGACAAAAAAAAAAAATAAAATAAAAATAAATAAAT [XGTACX_negctrl_site106],5.93
22,TATAATTATATTTGGAGTACAAATTTTTTTTTTTTT [XGTACX_site7494],6.35

row,Sequence,gcPBM binding intensity (ln)
1,AAAAAAAAAGGTAACGCATGCTTTTAGATTATATTA [TGCATGCA_site398],5.93
2,AAGTATGCTTGCTACTTATTAAGTGGCAATATAATT [XGTACX_negctrl_site74],6.19
3,TGTTAATAAAGGTGTACACAAAATAAAAAAAATTAT [CACACA_site4288],7.2
4,TTTGTATAGTTGTAGGTGCATATCATTTTTAAATGT [GTGCAC_site9708],9.34
5,AATAAAAAAATAGAAACACACATTAAAAAAAATAAA [CACACA_site1333],6.66
6,ATGATATATAGACACACACACATATTTATATACATT [CACACA_site6404],6.78
7,CTTTTTAATAAATATACACACACAAAAAAAAAAAAA [CACACA_site9316],6.54
8,TATTCAAAGAAAGACAGTACGTGTAGCAAACAACCT [XGTACX_site4218],6.66
9,ACTTACTAATTAATGGGTACATACACACATATATAC [XGTACX_site1362],6.84
10,CACTTTATACGTAATTGTACTTTTTCTTTTTTTTAT [XGTACX_site3175],6.58
11,TAAATAAAGTATAATGCATGCTATTATAATATTAAT [TGCATGCA_site825],6.51
12,ATAACAAAATAAAACACACACACAAATGTACATATA [CACACA_site2425],7.17
13,CATATACACCAACACACACACACACCCACAAAAAAA [CACACA_site496],7.48
14,AAATAAATAATTTAATGTACATATATAATATATATA [XGTACX_site1831],6.81
15,TATTTTTCCATATGCACACACACCGTATATATAATA [CACACA_site1127],10.1
16,AAAAAGAATGTGAACACACACATTGAATCTAATTTA [CACACA_site6711],6.02
17,TATTAAACGAAACACACACACACACCCATATATAAA [CACACA_site759],7.04
18,GATAATTATGGACACACACACACACCCACAACTAAA [CACACA_site8824],6.84
19,ACATATAATATATATATATATATATATATATATAAT [GTGCAC_negctrl_site648],7.26
20,TATATAAAAAATTCAATACACACCATATATAAATAT [CACACA_site3987],6.64
21,AGATGATATATTATATATCCTTTTAATAAATGTAAT [CACACA_negctrl_site730],6.07
22,CTATTTATTATATATACATGCATATATATATTAATA [TGCATGCA_site527],6.35
